# Measured values published in the supplement of paper PMC3334620.
# The full ranking holds about 33,000 sequences; the median of “E-score (-0.5 to 0.5)” is about -0.013, and the highest 2% start at about 0.3. The list shows a part of the results.
# Biological target: T1, Msn1 (UniProt P22148)
# T1 sequence: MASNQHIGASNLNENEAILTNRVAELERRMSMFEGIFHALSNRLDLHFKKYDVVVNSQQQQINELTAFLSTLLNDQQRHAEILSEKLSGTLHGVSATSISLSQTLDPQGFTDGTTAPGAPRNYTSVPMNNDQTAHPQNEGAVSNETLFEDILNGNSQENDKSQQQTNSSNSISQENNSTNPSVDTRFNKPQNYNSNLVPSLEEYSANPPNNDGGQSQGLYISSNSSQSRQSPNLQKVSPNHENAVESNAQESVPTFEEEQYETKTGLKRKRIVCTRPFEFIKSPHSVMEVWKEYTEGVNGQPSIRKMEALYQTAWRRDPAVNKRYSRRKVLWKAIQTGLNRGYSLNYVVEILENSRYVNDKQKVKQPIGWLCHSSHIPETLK
# Assay: PBM E-score (8-mer binding enrichment) (E-score (-0.5 to 0.5)); higher = stronger / more preferred TF binding; most listed sequences are background and not binding sites
# Settings: protein concentration: 200 nM; construct: GST-full length
# In short: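 E-scores (a modified Wilcoxon-Mann-Whitney statistic) were assigned by the Universal PBM Analysis Suite to every ungapped eight-base word pooled with its reverse complement. The input came from universal all-10-mer Agilent arrays made double-stranded by primer extension and probed with GST-tagged yeast transcription factors at about 100-200 nM. Fluorescent anti-GST detected bound protein, and masliner normalised the scans.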
row,Sequence,PBM E-score
1,ACTATGAG,-0.147
2,ACGACTAC,-0.0678
3,GCTGTGAC,-0.0226
4,ATCCTCCA,-0.167
5,TCTGTTCA,-0.0656
6,CTATAGGA,0.13
7,ACACCTCA,-0.233
8,ACCGGCTC,-0.0223
9,GACGCACA,-0.0238
10,ATAACTAG,0.1
11,ACCCTGAG,-0.0157
12,CTATGATC,-0.0722
13,TCCGAAAA,0.11
14,ACTCTCGG,0.00291
15,CAAAGACC,-0.0488
16,GATGGACA,0.443
17,CACCCATA,-0.211
18,GAATCGGC,-0.00123
19,GTTCAAAA,-0.0457
20,CCAGGTTA,0.0256
21,GTGAGAGA,-0.0903
22,ACGTGACC,-0.0943
23,GATAAGCA,-0.0944
24,ACGCAGCA,-0.0115
25,AGGCACAC,-0.183

row,Sequence,PBM E-score
1,AGGGGTGC,-0.284
2,CATCTGAG,-0.00958
3,CGATACTA,0.0538
4,CACTATCG,0.0155
5,TGATGGCA,-0.317
6,ATGATTGC,0.0731
7,AGCTTCGG,0.075
8,CACTGGCC,-0.0854
9,CTCCGCAA,-0.108
10,CCATTAAA,0.0533
11,AGAAGATA,0.0458
12,CGTTTATA,0.0564
13,CTTCCGGC,-0.0143
14,CCTCGAGG,-0.159
15,CGACATCC,0.0825
16,AAGGCAAA,0.111
17,ACGTTCTA,-0.00887
18,AGATTTCC,0.00061
19,CAACGGGA,0.123
20,ACCGCTTG,0.0976
21,AGTAGAAT,0.112
22,CTGGTCTA,-0.169
23,GCCGACTA,0.0514
24,CTAAAATC,-0.0653
25,TGAAATAA,0.217

row,Sequence,PBM E-score
1,GCTTTTAA,-0.0535
2,CCGCATCG,-0.132
3,TACGAGAA,0.0646
4,TCGCGAAA,0.161
5,GTGGTACA,0.13
6,CGCGTGAC,0.0142
7,AACAGGAG,-0.156
8,AGACGAGC,-0.14
9,GCCTCCAA,-0.0938
10,CTGCGCTA,-0.285
11,GCCGGAGA,0.0857
12,CCATGACG,0.0865
13,GAATACCC,-0.167
14,CTTTATAC,0.0824
15,CAGACTCC,-0.176
16,ACAAGTAA,0.0641
17,CGCCAGAC,-0.0965
18,ACTAATCT,-0.0304
19,ACACGATC,0.0223
20,AGGCTGGA,-0.303
21,CATCCGCC,-0.0302
22,AGATTAGA,-0.0445
23,GAGCTGCA,-0.268
24,AAGTTCGT,0.0437
25,CCGTCATC,-0.127

row,Sequence,PBM E-score
1,ATGATTCA,-0.135
2,CGCGCCCC,-0.0871
3,ATGACCTA,0.0998
4,GAAAGTGC,-0.0805
5,GCTGAGCA,-0.0486
6,GAGCGACA,0.202
7,CTTTAAGA,0.229
8,GCCCGCCC,-0.28
9,CACAGTAA,0.189
10,GTTAACCA,0.0597
11,GTGCAAGA,0.0666
12,ATTATTCC,0.121
13,ACTCACAT,-0.18
14,ACGCAGAC,0.0449
15,ATGGGTGG,-0.145
16,ACCGTTCA,0.053
17,ATGTGACG,-0.223
18,ACATTTGG,0.177
19,GTAGCTGA,-0.235
20,GCACAGAC,0.153
21,CGAAGGTA,0.0151
22,ATAAAGGA,-0.00327
23,CTCGATAA,0.134
24,AAAAGAAC,0.0662
25,AGACACAT,0.197

row,Sequence,PBM E-score
1,CCCCGTCG,-0.299
2,ACGGCATG,0.0326
3,AGACACAG,0.131
4,CACCACGA,-0.00247
5,CAGTATGA,0.0362
6,CGGTATGC,-0.0412
7,AAAATAAT,0.174
8,GACCTGTA,0.0628
9,CCAATAAA,0.0626
10,AGTCCGGA,0.267
11,AGTAGCGA,0.0595
12,GGAAGCTA,0.106
13,CTGGTTGA,-0.207
14,GCGGACAA,0.44
15,AGTATGCA,-0.0435
16,AAGAGTTG,0.0512
17,CACTCGAA,0.0074
18,AGGGAGGG,-0.283
19,GGCTATCA,-0.0415
20,AGTAGTGA,0.121
21,AGAGGGAT,-0.274
22,CTCTACCA,-0.116
23,GTCCGGAC,0.406
24,CACCCGGC,-0.407
25,CTCGCCAG,-0.284

row,Sequence,PBM E-score
1,AGAATGAC,0.159
2,ACCTCAGG,-0.129
3,GTTCCAAC,-0.0185
4,ACTCGCTG,-0.0996
5,ACCAATCG,0.0921
6,CAGAGGCG,-0.187
7,TAGTTACA,-0.173
8,AAGTGAAT,0.146
9,CAGTCTTC,-0.095
10,AACTAGAC,0.222
11,CGTATACG,-0.133
12,AGCTCGAG,0.0239
13,GAGCGCAC,-0.0759
14,GTCATATA,0.197
15,ATCAGGCC,-0.0335
16,GAATTTCC,0.227
17,TGCCGCCA,-0.00848
18,GAAGGAAC,-0.105
19,AATCAGAT,0.0763
20,AAGTCGGA,0.158
21,CTCTCGAA,-0.0563
22,GTGAACTA,0.165
23,GGATATGA,-0.00723
24,CGGAAGAG,-0.169
25,ACCTACGG,-0.349

row,Sequence,PBM E-score
1,ACAAACTC,0.101
2,AAAAATAC,-0.0146
3,CCATCAGC,-0.0912
4,CCCAATCC,-0.177
5,GGAGACAA,0.32
6,CCAGGTTC,-0.278
7,AATCCTAT,0.185
8,GCGACCCA,-0.164
9,CTTTCCTC,-0.15
10,GCTGTGCA,-0.219
11,CCCCCCGC,-0.378
12,GGCAGGCC,-0.134
13,GGCCAGCA,-0.11
14,CAAAGGTG,-0.0702
15,ATGCAGCG,-0.15
16,AAAACGAC,0.154
17,AGAATAGG,-0.0251
18,AGAGGATA,-0.0113
19,CCTGCCAG,-0.155
20,ACGTTCCG,0.00237
21,GTTCCGGA,0.162
22,AGTGGTAC,-0.0512
